Source: US20250243260A1 (ALPINE IMMUNE SCIENCES, published 2025)

B1: CD80-Fc-CD80_336 (Fc fusion)
chain: VIHVTKEVKGWATLSCGHNVSVEELAQYRIYWQKEKKMVLTMMSGDLNIWPEYKNRTIFDITNNLSIVILALRPSDEGTYECVVLKYEKDAFKREHLAEVTLSVKADGSGGGGS[omitted - human IgG4 Fc with S228P (EU numbers)]GGGGSGGGGSGGGGSVIHVTKEVKGWATLSCGYNVSVEELAQYRIYWQKEKKMVLTMMSGDLNIWPEYKNRTIFDITNNLSIVILALRPSDEGTYECVVLKYEKDAFKREHLAEVTLSVKAD
notes: Tetravalent after dimerization of the Fc chains; also called multivalent CD80_180 E10G/V11W/T28Y/M47L barbell
B2: CD80_171-Fc (Fc fusion)
chain: VIHVTKSVKEVATLSCGINLSVEELKQTRIYWQKEKKMVLTMMSGDLNIWPEYKNRTIFDITNNLSIVILNLRPSDEGTYECVVLKYEKDAFKREHLAEVTLSVKADGSGGGGS[omitted - human IgG4 Fc with S228P (EU numbers)]
notes: Variant CD80 IgV-GSGGGGS-human IgG4 Fc (S228P); also called E7S, H18I, V20L, A26K, M47L, A71N
B3: CD80_175-Fc (Fc fusion)
chain: B2 chain with S7E, E10S, V11F, I18H, L20V, K26A, T28Y, T62S, N71A
notes: Variant CD80 IgV-GSGGGGS-human IgG4 Fc (S228P); also called E10S, V11F, T28Y, M47L, T62S
B4: CD80_181-Fc (Fc fusion)
chain: B2 chain with S7E, K9S, E10R, V11Y, I18H, L20V, K26A, N71G
notes: Variant CD80 IgV-GSGGGGS-human IgG4 Fc (S228P); also called K9S, E10R, V11Y, M47L, A71G
B5: CD80_183-Fc (Fc fusion)
chain: B2 chain with S7E, V11Y, I18H, L20V, K26A, T28Y, N71G, Y87R
notes: Variant CD80 IgV-GSGGGGS-human IgG4 Fc (S228P); also called V11Y, T28Y, M47L, A71G, Y87R
B6: CD80_184-Fc (Fc fusion)
chain: B2 chain with S7E, V11Y, I18H, L20V, K26Q, N71G, Y87R
notes: Variant CD80 IgV-GSGGGGS-human IgG4 Fc (S228P); also called V11Y, A26Q, M47L, A71G, Y87R
B7: CD80_197-Fc (Fc fusion)
chain: B2 chain with S7E, V11Y, I18H, L20V, K26A, E35D, L47M, N71A, Y87Q, T101R
notes: Variant CD80 IgV-GSGGGGS-human IgG4 Fc (S228P); also called V11Y, E35D, Y87Q, T101R
B8: CD80_240-Fc (Fc fusion)
chain: B2 chain with S7E, V11Y, I18H, L20V, K26A, T28Y, D46E, L47V, V68M, N71A
notes: Variant CD80 IgV-GSGGGGS-human IgG4 Fc (S228P); also called V11Y, T28Y, D46E, M47V, V68M
B9: CD80_241-Fc (Fc fusion)
chain: B2 chain with S7E, E10S, V11F, I18H, L20V, K26A, T28Y, N71A
notes: Variant CD80 IgV-GSGGGGS-human IgG4 Fc (S228P); also called E10S, V11F, T28Y, M47L
B10: CD80_229-Fc (Fc fusion)
chain: B2 chain with S7E, V11Y, I18H, L20V, K26A, L47V, N71G, L85E
notes: also called V11Y, M47V, A71G, L85E
B11: CD80_230-Fc (Fc fusion)
chain: B2 chain with S7E, E10G, I18H, L20V, K26A, Q27F, D46N, L47M, N71G, D90G
notes: also called E10G, Q27F, D46N, A71G, D90G
B12: CD80_231-Fc (Fc fusion)
chain: B2 chain with S7E, V11W, I18H, L20V, K26A, T28Y, N71A
notes: also called V11W, T28Y, M47L
B13: CD80_232-Fc (Fc fusion)
chain: B2 chain with S7E, V11F, I18H, L20V, K26A, T28Y, N71A
notes: also called V11F, T28Y, M47L
B14: CD80_233-Fc (Fc fusion)
chain: B2 chain with S7E, V11Y, I18H, L20V, K26A, T28Y, V68M, N71A
notes: also called V11Y, T28Y, M47L, V68M
B15: CD80_234-Fc (Fc fusion)
chain: B2 chain with S7E, V11Y, I18H, L20V, K26A, T28Y, V68L, N71A
notes: also called V11Y, T28Y, M47L, V68L
B16: CD80_235-Fc (Fc fusion)
chain: B2 chain with S7E, V11Y, I18H, L20V, K26A, N71G
notes: also called V11Y, M47L, A71G
B17: CD80_236-Fc (Fc fusion)
chain: B2 chain with S7E, V11Y, I18H, L20V, K26A, T28Y, N71G
notes: also called V11Y, T28Y, M47L, A71G
B18: CD80_238-Fc (Fc fusion)
chain: B2 chain with S7E, V11Y, I18H, L20V, K26A, D46E, L47V, V68M, N71A
notes: also called V11Y, D46E, M47V, V68M
B19: CD80_239-Fc (Fc fusion)
chain: B2 chain with S7E, V11Y, I18H, L20V, K26A, T28Y, D46E, L47V, N71A
notes: also called V11Y, T28Y, D46E, M47V
B20: CD80_240-Fc (Fc fusion)
chain: B2 chain with S7E, V11Y, I18H, L20V, K26A, T28Y, D46E, L47V, V68M, N71A
notes: also called V11Y, T28Y, D46E, M47V, V68M
B21: CD80_241-Fc (Fc fusion)
chain: B2 chain with S7E, E10S, V11F, I18H, L20V, K26A, T28Y, N71A
notes: also called E10S, V11F, T28Y, M47L
B22: CD80_242-Fc (Fc fusion)
chain: B2 chain with S7E, V11F, I18H, L20V, K26A, T28Y, T62S, N71A
notes: also called V11F, T28Y, M47L, T62S
B23: CD80_243-Fc (Fc fusion)
chain: B2 chain with S7E, V11Y, I18H, L20V, K26A, N71G, Y87R
notes: also called V11Y, M47L, A71G, Y87R
B24: CD80_244-Fc (Fc fusion)
chain: B2 chain with S7E, V11Y, I18H, L20V, K26A, T28Y, N71A, Y87R
notes: also called V11Y, T28Y, M47L, Y87R
B25: WT CD80 ECD Fc IgG4 (Fc fusion)
chain: VIHVTKEVKEVATLSCGHNVSVEELAQTRIYWQKEKKMVLTMMSGDMNIWPEYKNRTIFDITNNLSIVILALRPSDEGTYECVVLKYEKDAFKREHLAEVTLSVKADFPTPSISDFEIPTSNIRRIICSTSGGFPEPHLSWLENGEELNAINTTVSQDPETELYAVSSKLDFNMTTNHSFMCLIKYGHLRVNQTFNWNTTKQEHFPDNGSGGGGS[omitted - human IgG4 Fc with S228P (EU numbers)]
notes: also called wild-type CD80 ECD-Fc
B26: WT CD80 ECD-Fc IgG4 (Fc fusion)
chain: B25 chain
notes: as for B25

molecular target: T1, human CD28 on cells (human, UniProt P10747 19-220); experiment: flow cytometry, primary human T cells
T1 construct: whole, on cells
Description: (§1) Binding affinity to CD28 was determined using primary human T cells which endogenously express CD28. Binding to PD-L1 was determined using SCC152 cells transduced with human PD-L1. Binding to CTLA-4 was measured using Chinese hamster ovary (CHO) cells stably transduced to express human CTLA-4.
(§2) For staining and analysis by flow cytometry, 75,000 human T cells, SCC152/PD-L1 cells, or CHO/CTLA-4 cells were plated in 96-well round-bottom plates. Cells were spun down and resuspended in staining buffer (PBS (phosphate buffered saline), 1% BSA (bovine serum albumin), 1 mM EDTA, and 0.1% sodium azide) for 20 minutes to block non-specific binding. Afterwards, cells were centrifuged, stain buffer aspirated, and then resuspended in 50 μL of a 1:5 serial dilution of each CD80-Fc candidate variant starting at 100 nM ending at 0.8 nM. Primary staining was performed on ice for 60 minutes, before washing cells in […] staining buffer three times. PE-conjugated anti-human Fc (Jackson ImmunoResearch, USA) was diluted 1:250 in 50 μL staining buffer and added to cells and incubated another 30 minutes at 4° C. Cells were washed two times in 150 μL stain buffer and then fixed in 2% formaldehyde/PBS for 5 minutes at room temperature. Samples were analyzed CytoFLEX LX flow cytometer (Beckman Coulter, USA). Median Fluorescence Intensity (MFI) was calculated for each cell type using the CytExpert software from Beckman Coulter.
(§3) Binding assays were carried out to assess the specificity and affinity of multivalent proteins to cell-expressed CTLA-4, CD28, and PD-L1 counter structures.

Row | Binder | Anti-Human Fc (MFI) at 0.8 nM [MFI] | Anti-Human Fc (MFI) at 4 nM [MFI] | Anti-Human Fc (MFI) at 20 nM [MFI] | Anti-Human Fc (MFI) at 100 nM [MFI] | fold change vs WT CD80 @20 nM [fold]
1 | B1 | 329 | 496 | 844 | 1470 | 4.7

molecular target: T2, rhu PD-L1 (human, UniProt Q9NZQ7 fragment, limits assumed); experiment: SPR (Biacore), captured CD80-Fc, PD-L1 analyte
T2 construct: also called PD-L1 (SPR analyte)

Row | Binder | Complex half-life [min] | koff [s⁻¹]
2 | B2 | 1.23 | 0.009
3 | B3 | 0.642 | 0.018
4 | B4 | 1.67 | 0.007
5 | B5 | 1.56 | 0.007
6 | B6 | 1.61 | 0.007
7 | B7 | 0.84 | 0.014
8 | B8 | 0.69 | 0.017
9 | B9 | 0.63 | 0.018

molecular target: T1, human CD28 on cells; experiment: cell-based or functional assay

Row | Binder | Fold Increase over WT at 50 nM [fold] | Rel. Luminescence Units (RLU) at 2 nM, K562/OKT3/PD-L1 + Jurkat/IL-2 reporter [RLU] | Rel. Luminescence Units (RLU) at 10 nM, K562/OKT3/PD-L1 + Jurkat/IL-2 reporter [RLU] | Rel. Luminescence Units (RLU) at 50 nM, K562/OKT3/PD-L1 + Jurkat/IL-2 reporter [RLU]
10 | B1 | 5.4 | 10600 | 12400 | 13200

molecular target: T3, human PD-L1 (human, UniProt Q9NZQ7); experiment: flow cytometry, SCC152/PD-L1 cells
T3 construct: whole, on cells; also called SCC152/PD-L1 cells

Row | Binder | Anti-Human Fc (MFI) at 0.8 nM [MFI] | Anti-Human Fc (MFI) at 4 nM [MFI] | Anti-Human Fc (MFI) at 20 nM [MFI] | Anti-Human Fc (MFI) at 100 nM [MFI] | fold change vs WT CD80 @20 nM [fold]
11 | B10 | 771 | 1160 | 2220 | 4260 | 3.3
12 | B11 | 833 | 1110 | 1620 | 2110 | 2.4
13 | B12 | 683 | 692 | 853 | 1040 | 1.3
14 | B13 | 816 | 1100 | 1570 | 1820 | 2.3
15 | B14 | 3650 | 6520 | 6910 | 7170 | 10.1
16 | B15 | 2460 | 6440 | 9550 | 9480 | 14
17 | B16 | 995 | 1990 | 5240 | 8940 | 7.7
18 | B17 | 1680 | 4240 | 9000 | 10400 | 13.2
19 | B18 | 957 | 1660 | 3600 | 5400 | 5.3
20 | B19 | 863 | 1220 | 2190 | 4380 | 3.2
21 | B20 | 4220 | 7570 | 8760 | 9700 | 12.8
22 | B21 | 1500 | 3210 | 5150 | 6480 | 7.5
23 | B22 | 963 | 1500 | 1770 | 2500 | 2.6
24 | B23 | 960 | 1850 | 5100 | 9480 | 7.5
25 | B24 | 819 | 1370 | 3500 | 6820 | 5.1
26 | B25 | 644 | 652 | – | 637 | 1

molecular target: T4, human CTLA-4 on CHO cells (human, UniProt P16410 36-223); experiment: flow cytometry, CHO/CTLA-4 cells
T4 construct: whole, on cells; also called CHO/CTLA-4
T4 sequence (P16410 36-223): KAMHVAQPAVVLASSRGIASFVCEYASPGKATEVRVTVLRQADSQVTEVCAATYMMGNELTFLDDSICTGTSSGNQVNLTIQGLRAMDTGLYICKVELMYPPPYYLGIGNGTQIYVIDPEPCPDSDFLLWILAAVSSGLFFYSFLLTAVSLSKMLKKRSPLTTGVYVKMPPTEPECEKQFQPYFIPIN
Description: as §1, §2, §3

Row | Binder | Anti-Human Fc (MFI) at 0.8 nM [MFI] | Anti-Human Fc (MFI) at 4 nM [MFI] | Anti-Human Fc (MFI) at 20 nM [MFI] | Anti-Human Fc (MFI) at 100 nM [MFI] | fold change vs WT CD80 @20 nM [fold]
27 | B1 | 187000 | 283000 | 292000 | 284000 | 0.35
28 | B26 | 217000 | 525000 | 829000 | 856000 | 1

Where a chain is given by its changes, count along the chain named. Numbers in names are those of the source.
